The target in assay [1] is T1, Flag-WT-FBXO33 (human) (UniProt Q7Z6M2).
T1 sequence: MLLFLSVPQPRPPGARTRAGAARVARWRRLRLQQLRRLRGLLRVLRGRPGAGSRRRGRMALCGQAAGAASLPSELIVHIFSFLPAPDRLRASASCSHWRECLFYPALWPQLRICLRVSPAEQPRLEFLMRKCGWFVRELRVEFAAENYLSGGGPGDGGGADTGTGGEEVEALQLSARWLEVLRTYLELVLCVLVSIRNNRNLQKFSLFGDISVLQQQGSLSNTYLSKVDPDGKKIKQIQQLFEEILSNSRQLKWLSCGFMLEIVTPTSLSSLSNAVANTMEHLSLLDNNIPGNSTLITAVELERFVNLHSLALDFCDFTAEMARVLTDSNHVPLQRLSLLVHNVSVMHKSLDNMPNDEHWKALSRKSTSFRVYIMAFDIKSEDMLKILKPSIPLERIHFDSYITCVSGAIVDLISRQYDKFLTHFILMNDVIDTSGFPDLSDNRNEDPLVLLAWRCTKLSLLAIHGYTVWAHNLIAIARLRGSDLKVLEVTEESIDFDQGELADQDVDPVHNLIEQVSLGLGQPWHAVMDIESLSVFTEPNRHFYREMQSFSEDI
The experiment in a line: co-IP; cells transfected with His-tagged p53 forms and Flag-tagged FBXO33 forms; 1 mg total protein of the lysate incubated overnight at 4 °C with antibody-magnetic bead complexes, then blotting; bait not given.

Assay [2] has as its target T2, Flag-▲1-111-FBXO33 (human) (UniProt Q7Z6M2).
T2 sequence: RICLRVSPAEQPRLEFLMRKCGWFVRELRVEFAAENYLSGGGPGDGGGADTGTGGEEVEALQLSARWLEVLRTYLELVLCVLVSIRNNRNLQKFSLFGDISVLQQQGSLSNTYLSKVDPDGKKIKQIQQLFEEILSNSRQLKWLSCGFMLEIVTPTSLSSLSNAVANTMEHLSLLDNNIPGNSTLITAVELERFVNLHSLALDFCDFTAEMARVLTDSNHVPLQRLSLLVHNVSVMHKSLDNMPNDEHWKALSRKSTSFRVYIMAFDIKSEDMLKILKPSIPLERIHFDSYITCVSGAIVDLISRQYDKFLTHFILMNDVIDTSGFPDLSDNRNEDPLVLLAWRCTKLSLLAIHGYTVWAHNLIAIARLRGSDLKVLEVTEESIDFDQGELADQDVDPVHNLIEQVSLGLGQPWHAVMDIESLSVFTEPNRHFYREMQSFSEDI
The description is as above.

Assay [3] deals with T3, Flag-▲111-555-FBXO33 (human) (UniProt Q7Z6M2).
T3 sequence: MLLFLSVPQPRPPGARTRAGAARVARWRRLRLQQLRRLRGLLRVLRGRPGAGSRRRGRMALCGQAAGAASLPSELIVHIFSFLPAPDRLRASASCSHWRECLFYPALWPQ
The description is as above.

Assay [4] addresses T4, F-box only protein 33 (human) (UniProt Q7Z6M2).
T4 sequence: T1 sequence
Nature of the assay: co-IP; lysates of GBC-SD and SGC-996 cells; 1 mg total protein incubated overnight at 4 °C with antibody-magnetic bead complexes, then blotting; bait not given.

These are yes or no findings as the source states them, for the method shown. In cells and extracts the contact can be indirect. Some entries that bind do so weakly or less than the wild type. For some of these results: Where a sequence is shown, tags or fusion partners need not be part of it.

With “His-▲293-393-p53 (from UniProt P04637 1-292) (domain or fragment)”, the binding entry in assay [1] was “binds”.

In the case of His-WT-p53 (from UniProt P04637 1-393), the binding entry in assay [1] was “binds”; in assay [2] it was “binds”; in assay [3], “no binding”.

With “His-▲1-100-p53 (from UniProt P04637 101-393) (domain or fragment)”, the binding result in assay [1] was “binds”.

As to “His-▲100–293-p53 (from UniProt P04637 1-393) (domain or fragment)”, the binding entry in assay [1] was “no binding”.

For the substance “wild-type p53 (from UniProt P04637 1-393)”, in assay [4], the binding result is “binds”.

The values are drawn from PMC11871038.
